Where a name gives a salt, the structure may show the parent alone. Read-outs that look alike come from different tables or passages of the source. A value given as a limit tells only on which side of the number the result lay.

Holding throughout (assay): cells
The test system of assay [1] is MCF-7 luminal breast cancer cell line. Particulars: Homo sapiens, MCF7, 120 h.
Assay [2] relates to MDA-MB-468 basal breast cancer cell line. Particulars: Homo sapiens, MDA-MB-468, 120 h.
For assay [3], the system named is HCC1954 basal breast cancer cell line. Particulars: Homo sapiens, HCC1954, 120 h.
The subject of assay [4] is SW620 colon cancer cell line. The following applies: Homo sapiens, SW-620, 120 h, read-out: Cell Line GI50 Range SW-620.
For assay [5], the system named is A549 lung cancer cell line. The following applies: Homo sapiens, A549, 120 h, read-out: Cell Line GI50 Range A-549.
Setting [6] is: read-out: Cell Line GI50 Range MCF-7.
[7] abbreviates: read-out: Cell Line GI50 Range MDA-MB-468.
The mark [8] stands for this setting: read-out: Cell Line GI50 Range HCC-1954.
Where [9] appears, read: read-out: Cell Line GI50 Range MCF-7, MCF-7 luminal breast cancer cell line, SRB assay, 5 days.
The mark [10] stands for this setting: read-out: Cell Line GI50 Range HCC-1954, HCC1954 basal breast cancer cell line, SRB assay, 5 days.

Regarding `Cc1ccc2c(c1)[C@]1(C[C@H]1c1ccc3c(-c4ccc(N5CCN(C)CC5)cc4)n[nH]c3c1)C(=O)N2` (relative stereo) [Example A173, (1R*,2S*)-5′-methyl-2-(3-(4-(4-methylpiperazin-1-yl)phenyl)-1H-indazol-6-yl)spiro[cyclopropane-1,3′-indolin]-2′-one 2,2,2-trifluoroacetate], the GI50 in assay [1] (setting [6]), in assay [2] (setting [7]), in assay [3] (setting [8]), in assay [4] and in assay [5] was 100 to 1000 nM throughout.
`COc1ccc2c(c1)[C@]1(C[C@H]1c1ccc3c(-c4cccc(N5CCNCC5)c4)n[nH]c3c1)C(=O)N2` (relative stereo) [Example A47, (1R*,2S*)-5′-methoxy-2-(3-(3-(piperazin-1-yl)phenyl)-1H-indazol-6-yl)spiro[cyclopropane-1,3′-indolin]-2′-one 2,2,2-trifluoroacetate]: the GI50 in assay [1] (setting [9]), in assay [2] (setting [7]), in assay [3] (setting [10]), in assay [4] and in assay [5] was 1000 to 10000 nM each time.
`CN(C)Cc1ccc(/C=C/c2n[nH]c3cc([C@@H]4C[C@@]45C(=O)Nc4ncccc45)ccc23)cc1` (relative stereo) [Example A172, (1R*,2S*)-(E)-2-(3-(4-((dimethylamino)methyl)styryl)-1H-indazol-6-yl)spiro[cyclopropane-1,3′-pyrrolo[2,3-b]pyridin]-2′(1′H)-one 2,2,2-trifluoroacetate]: the GI50 in assay [1] (setting [9]) was 100 to 1000 nM; in assay [2] (setting [7]) it was less than 100 nM; in assay [3] (setting [10]), 1000 to 10000 nM; in assay [4] it was less than 100 nM; in assay [5] it was less than 100 nM.
On to `O=C1Nc2ccccc2[C@]12C[C@H]2c1ccc2c(/C=C/c3csc(CN4CCOCC4)c3)n[nH]c2c1` [Example A202, (1R,2S)-2-(3-((E)-2-(5-(morpholinomethyl)thiophen-3-yl)vinyl)-1H-indazol-6-yl)spiro[cyclopropane-1,3′-indolin]-2′-one 2,2,2-trifluoroacetate], for which the GI50 in assay [1] (setting [6]) was 1000 to 10000 nM; in assay [2] (setting [7]) it was less than 100 nM; in assay [3] (setting [8]), 1000 to 10000 nM; in assay [4], less than 100 nM; in assay [5], less than 100 nM.
On to `COc1ccc2c(c1)[C@]1(C[C@H]1c1ccc3c(/C=C/c4ccc5c(c4)CN(C)CC5)n[nH]c3c1)C(=O)N2` [Example A64, (1R,2S)-5′-methoxy-2-(3-((E)-2-(2-methyl-1,2,3,4-tetrahydroisoquinolin-7-yl)vinyl)-1H-indazol-6-yl)spiro[cyclopropane-1,3′-indolin]-2′-one 2,2,2-trifluoroacetate salt], for which the GI50 in assay [1] (setting [6]) was less than 100 nM; in assay [2] (setting [7]), less than 100 nM; in assay [3] (setting [8]), 100 to 1000 nM; in assay [4], less than 100 nM; in assay [5], less than 100 nM.
As for `COc1ccc2c(c1)[C@]1(C[C@H]1c1ccc3c(/C=C/c4csc(CN5CCOCC5)c4)n[nH]c3c1)C(=O)N2` [Example A183, (1R,2S)-5′-methoxy-2-(3-((E)-2-(5-(morpholinomethyl)thiophen-3-yl)vinyl)-1H-indazol-6-yl)spiro[cyclopropane-1,3′-indolin]-2′-one 2,2,2-trifluoroacetate], the GI50 was less than 100 nM in assay [1] (setting [6]); less than 100 nM in assay [2] (setting [7]); 1000 to 10000 nM in assay [3] (setting [8]); less than 100 nM in assay [4]; less than 100 nM in assay [5].
In the case of `COc1ccc2c(c1)[C@]1(C[C@H]1c1ccc3c(/C=C/c4ccc(CN5CC[C@@H](F)C5)cc4)n[nH]c3c1)C(=O)N2` [Example A112, (1R,2S)-(E)-2-(3-(4-(((R)-3-fluoropyrrolidin-1-yl)methyl)styryl)-1H-indazol-6-yl)-5′-methoxyspiro[cyclopropane-1,3′-indolin]-2′-one 2,2,2-trifluoroacetate], the GI50 is less than 100 nM in assay [1] (setting [9]); less than 100 nM in assay [2] (setting [7]); 1000 to 10000 nM in assay [3] (setting [10]); less than 100 nM in assay [4]; less than 100 nM in assay [5].
Take `O=C1Nc2ccccc2[C@]12C[C@H]2c1ccc2c(-c3ccc(CN4CCOCC4)cc3)n[nH]c2c1` (relative stereo) [Example A154, (1R*,2S*)-2-(3-(4-(morpholinomethyl)phenyl)-1H-indazol-6-yl)spiro[cyclopropane-1,3′-indolin]-2′-one 2,2,2-trifluoroacetate]: the GI50 was 1000 to 10000 nM in assay [1] (setting [6]); 1000 to 10000 nM in assay [2] (setting [7]); more than 10000 nM in assay [3] (setting [8]); more than 10000 nM in assay [4]; 1000 to 10000 nM in assay [5].
For the molecule `COc1ccc2c(c1)[C@]1(C[C@H]1c1ccc3c(/C=C/c4cc(F)c(CN(C)C)c(F)c4)n[nH]c3c1)C(=O)N2` [Example A216, (1R,2S)-(E)-2-(3-(4-((dimethylamino)methyl)-3,5-difluorostyryl)-1H-indazol-6-yl)-5′-methoxyspiro[cyclopropane-1,3′-indolin]-2′-one 2,2,2-trifluoroacetate], the GI50 in assay [1] (setting [6]) is 100 to 1000 nM; in assay [2] (setting [7]) it was less than 100 nM; in assay [3] (setting [8]), 1000 to 10000 nM; in assay [4] it was less than 100 nM; in assay [5] it was less than 100 nM.
Consider `CCN(CC)Cc1c(F)cc(/C=C/c2n[nH]c3cc([C@@H]4C[C@@]45C(=O)Nc4ccc(OC)cc45)ccc23)cc1F` [Example A146, (1R,2S)-(E)-2-(3-(4-((diethylamino)methyl)-3,5-difluorostyryl)-1H-indazol-6-yl)-5′-methoxyspiro[cyclopropane-1,3′-indolin]-2′-one 2,2,2-trifluoroacetate], for which the concentration for 50% growth inhibition (GI50) in assay [1] (setting [6]) was 1000 to 10000 nM; in assay [2] (setting [7]), less than 100 nM; in assay [3] (setting [8]) it was 1000 to 10000 nM; in assay [4], less than 100 nM; in assay [5], less than 100 nM.
Take `COc1ccc2c(c1)[C@]1(C[C@H]1c1ccc3c(C#Cc4ccc(CN5CCN(C)CC5)cc4)n[nH]c3c1)C(=O)N2` (relative stereo) [Example A145, (1R*,2S*)-5′-methoxy-2-(3-((4-((4-methylpiperazin-1-yl)methyl)phenyl)ethynyl)-1H-indazol-6-yl)spiro[cyclopropane-1,3′-indolin]-2′-one bis(2,2,2-trifluoroacetate)]: the GI50 in assay [1] (setting [9]) fell in the range of 100 to 1000 nM; in assay [2] (setting [7]), 100 to 1000 nM; in assay [3] (setting [10]), 1000 to 10000 nM; in assay [4] it was 1000 to 10000 nM; in assay [5], 100 to 1000 nM.
With `CN1CCN(Cc2ccc(-c3n[nH]c4cc([C@@H]5C[C@@]56C(=O)Nc5ccccc56)ccc34)cc2)CC1` (relative stereo) [Example A155, (1R*,2S*)-2-(3-(4-((4-methylpiperazin-1-yl)methyl)phenyl)-1H-indazol-6-yl)spiro[cyclopropane-1,3′-indolin]-2′-one bis-2,2,2-trifluoroacetate], the GI50 was 1000 to 10000 nM in assay [1] (setting [6]); 1000 to 10000 nM in assay [2] (setting [7]); more than 10000 nM in assay [3] (setting [8]); 1000 to 10000 nM in assay [4]; 1000 to 10000 nM in assay [5].
`COc1ccc2c(c1)[C@]1(C[C@H]1c1ccc3c(-c4ccc(C5(F)CCN(C)CC5)cc4)n[nH]c3c1)C(=O)N2` [Example A124, (1R,2S)-2-(3-(4-(4-fluoro-1-methylpiperidin-4-yl)phenyl)-1H-indazol-6-yl)-5′-methoxyspiro[cyclopropane-1,3′-indolin]-2′-one 2,2,2-trifluoroacetate]: the GI50 in assay [1] (setting [6]) is 100 to 1000 nM; in assay [2] (read-out: Cell Line GI50 Range MDA-MB-468, MDA-MB-468 basal breast cancer cell line, SRB assay, 5 days), 100 to 1000 nM; in assay [3] (setting [10]), 1000 to 10000 nM; in assay [4], 100 to 1000 nM; in assay [5], less than 100 nM.
Consider `COc1ccc2c(c1)[C@]1(C[C@H]1c1ccc3c(/C=C/c4ccc(CN5CCCC5)cc4)n[nH]c3c1)C(=O)N2` [Example A83, (1R,2S)-(E)-5′-methoxy-2-(3-(4-(pyrrolidin-1-ylmethyl)styryl)-1H-indazol-6-yl)spiro[cyclopropane-1,3′-indolin]-2′-one 2,2,2-trifluoroacetate], for which the GI50 in assay [1] (setting [6]) was 1000 to 10000 nM; in assay [2] (setting [7]) it was less than 100 nM; in assay [3] (setting [8]), 1000 to 10000 nM; in assay [4], less than 100 nM; in assay [5], less than 100 nM.
On to `COc1ccc2c(c1)[C@]1(C[C@H]1c1ccc3c(/C=C/c4ccncc4)n[nH]c3c1)C(=O)N2` [Example A111, (1R,2S)-5′-methoxy-2-(3-((E)-2-(pyridin-4-yl)vinyl)-1H-indazol-6-yl)spiro[cyclopropane-1,3′-indolin]-2′-one 2,2,2-trifluoroacetate], for which the GI50 was more than 10000 nM in assay [1] (setting [9]); less than 100 nM in assay [2] (setting [7]); more than 10000 nM in assay [3] (setting [10]); 100 to 1000 nM in assay [4]; less than 100 nM in assay [5].
In the case of `COc1ccc2c(c1)[C@]1(C[C@H]1c1ccc3c(/C=C/c4cccnc4)n[nH]c3c1)C(=O)N2` [Example A197, (1R,2S)-5′-methoxy-2-(3-((E)-2-(pyridin-3-yl)vinyl)-1H-indazol-6-yl)spiro[cyclopropane-1,3′-indolin]-2′-one], the GI50 was less than 100 nM in assay [1] (setting [9]); less than 100 nM in assay [2] (setting [7]); 100 to 1000 nM in assay [3] (setting [10]); less than 100 nM in assay [4]; less than 100 nM in assay [5].
For `COc1ccc2c(c1)[C@]1(C[C@H]1c1ccc3c(-c4ccc(N5CCC(O)CC5)nc4)n[nH]c3c1)C(=O)N2` (relative stereo) [Example A117, (1R*,2S*)-2-(3-(6-(4-hydroxypiperidin-1-yl)pyridin-3-yl)-1H-indazol-6-yl)-S-methoxyspiro[cyclopropane-1,3′-indolin]-2′-one 2,2,2-trifluoroacetate], the GI50 was 1000 to 10000 nM in assay [1] (setting [9]); 100 to 1000 nM in assay [2] (setting [7]); more than 10000 nM in assay [3] (setting [10]); more than 10000 nM in assay [4]; 1000 to 10000 nM in assay [5].

The GI50 is the concentration at which growth is held to half of that of the control.

These data come from patent publication US10358436B2, “Kinase inhibitors and method of treating cancer” (University Health Network, priority 2010, dated 2019).
